Reference: patent US9266939B2, “Compositions comprising natriuretic peptides and methods of use thereof” (Alexion Pharmaceuticals, Inc., priority 2010, dated 2016)

B1: NC2-KGANKK: NC2st variant, Fc-CNP fusion with KGANKK; SEQ ID NO: 512 (protein)
chain: [not shown - human IgG1 Fc]GGGGSGGGGSKGANKKGLSKGCFGLKLDRIGSMSGLGC
modifications: Synthetic Construct (NC2-KGANKK (w/o sig. seq.))
B2: NC2-KGANQK: NC2st variant; SEQ ID NO: 514 (protein)
chain: [not shown - human IgG1 Fc]GGGGSGGGGSKGANQKGLSKGCFGLKLDRIGSMSGLGC
modifications: Synthetic Construct (NC2-KGANQK (w/o sig. seq.))
B3: D10-NC2: NC2 with D10 bone-targeting moiety; SEQ ID NO: 608 (protein)
chain: DDDDDDDDDD[not shown - human IgG1 Fc]GGGGSGGGGSGGGGSGGLSKGCFGLKLDRIGSMSGLGC
modifications: Synthetic Construct (D10-NC2 (w/o sig. seq.))

Assays:
NPR-B [1] = molecular target: T1, NPR-B (Homo sapiens, UniProt P20594); assay: Whole cell guanylyl cyclase (cGMP) assay, NPR-B; assay type: cell-based; set-up: expressed in transfected cells; conditions: for % Efficiency / EC50 Ratio versus CNP22 / Rescue Ratio versus CNP22: NC2st variants; for % Efficiency / EC50 Ratio versus CNP22 / Rescue Ratio versus CNP22 / EC50: NPR-B whole cell cGMP assay; for Rescue range: concentration producing cGMP as 2.4 nM (lower) and 14 nM (high) CNP22, X: cannot be determined; for potency compared with NC2B: whole cell cGMP assay (FIGS. 37A, 37B); for EC50: NC2st variants without signal sequence
T1 sequence (P20594 23-1047): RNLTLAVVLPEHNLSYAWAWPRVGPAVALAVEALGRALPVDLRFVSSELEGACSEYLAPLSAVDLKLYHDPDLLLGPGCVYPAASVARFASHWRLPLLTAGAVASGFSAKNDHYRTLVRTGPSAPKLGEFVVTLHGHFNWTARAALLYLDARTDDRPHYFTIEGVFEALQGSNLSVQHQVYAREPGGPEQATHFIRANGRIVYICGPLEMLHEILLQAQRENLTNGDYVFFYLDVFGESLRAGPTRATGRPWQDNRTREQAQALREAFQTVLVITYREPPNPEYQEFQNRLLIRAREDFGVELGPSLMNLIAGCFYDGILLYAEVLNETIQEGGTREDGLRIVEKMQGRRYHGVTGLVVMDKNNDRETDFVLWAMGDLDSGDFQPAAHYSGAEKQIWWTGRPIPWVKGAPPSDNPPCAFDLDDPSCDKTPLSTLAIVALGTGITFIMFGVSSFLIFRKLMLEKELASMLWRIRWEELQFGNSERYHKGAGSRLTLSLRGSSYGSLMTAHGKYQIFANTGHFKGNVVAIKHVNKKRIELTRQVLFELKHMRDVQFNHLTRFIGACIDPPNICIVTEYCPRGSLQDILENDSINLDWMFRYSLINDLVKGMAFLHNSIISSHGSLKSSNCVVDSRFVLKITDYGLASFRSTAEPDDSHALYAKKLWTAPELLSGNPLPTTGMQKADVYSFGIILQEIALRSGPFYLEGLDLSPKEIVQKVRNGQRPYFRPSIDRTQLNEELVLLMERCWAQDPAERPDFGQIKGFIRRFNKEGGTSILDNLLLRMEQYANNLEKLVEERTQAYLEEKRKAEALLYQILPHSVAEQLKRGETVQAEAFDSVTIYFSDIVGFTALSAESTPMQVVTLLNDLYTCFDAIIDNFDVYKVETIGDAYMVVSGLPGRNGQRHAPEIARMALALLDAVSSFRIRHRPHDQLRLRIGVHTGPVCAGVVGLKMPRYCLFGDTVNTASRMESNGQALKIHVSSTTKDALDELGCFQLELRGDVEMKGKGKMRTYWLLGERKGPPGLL
Experimental: HEK293S cells in a semi-confluent 75 cm2 flask are transfected with 30 μg of plasmid DNA coding for the appropriate receptor, e.g., human NPR-B or NPR-A, using Lipofectamine-2000CD. Alternatively, a stable polyclonal HEK293 S cell line expressing either human NPR-B or NPR-A was used. 24 hours after transfection, cells are trypsinized and plated into 48-well plates at 1×10^5 cells/well. Guanylyl cyclase assay is carried out 24 hours post-plating. Cells are first incubated for 30 minutes at 37° C. with serum-free DMEM medium. Then, they are incubated in triplicate with or without increasing concentrations of reference or test proteins in serum-free DMEM supplemented with 1 mM IBMX and 0.5% BSA, at 37° C. for 30 minutes to one hour. CNP serves as a suitable reference for NPR-B, while ANP is a suitable reference for NPR-A. Finally, cells are washed with ice-cold PBS and solubilized in lysis buffer from Catchpoint cGMP kit (Molecular devices). Concentrations of cGMP in lysate are determined using the Catchpoint cGMP kit. Dose-response curves are analysed with GraphPad Prism 5 software using non-linear regression with four-parameter logistic equation.

[2] = molecular target: neutral endopeptidase (NEP) (Homo sapiens, UniProt P08473)
NPR-B [3] = molecular target: NPR-B (Homo sapiens, UniProt P20594); assay: EC50 (nM)
Text: Head of the field: EC50 (nM)
First copying reader's note: The table stands under a dose-response plot; according to the description the EC50 ratio and rescue ratio are relative to CNP22.

UniProt P08473, sequence (P08473 whole entry): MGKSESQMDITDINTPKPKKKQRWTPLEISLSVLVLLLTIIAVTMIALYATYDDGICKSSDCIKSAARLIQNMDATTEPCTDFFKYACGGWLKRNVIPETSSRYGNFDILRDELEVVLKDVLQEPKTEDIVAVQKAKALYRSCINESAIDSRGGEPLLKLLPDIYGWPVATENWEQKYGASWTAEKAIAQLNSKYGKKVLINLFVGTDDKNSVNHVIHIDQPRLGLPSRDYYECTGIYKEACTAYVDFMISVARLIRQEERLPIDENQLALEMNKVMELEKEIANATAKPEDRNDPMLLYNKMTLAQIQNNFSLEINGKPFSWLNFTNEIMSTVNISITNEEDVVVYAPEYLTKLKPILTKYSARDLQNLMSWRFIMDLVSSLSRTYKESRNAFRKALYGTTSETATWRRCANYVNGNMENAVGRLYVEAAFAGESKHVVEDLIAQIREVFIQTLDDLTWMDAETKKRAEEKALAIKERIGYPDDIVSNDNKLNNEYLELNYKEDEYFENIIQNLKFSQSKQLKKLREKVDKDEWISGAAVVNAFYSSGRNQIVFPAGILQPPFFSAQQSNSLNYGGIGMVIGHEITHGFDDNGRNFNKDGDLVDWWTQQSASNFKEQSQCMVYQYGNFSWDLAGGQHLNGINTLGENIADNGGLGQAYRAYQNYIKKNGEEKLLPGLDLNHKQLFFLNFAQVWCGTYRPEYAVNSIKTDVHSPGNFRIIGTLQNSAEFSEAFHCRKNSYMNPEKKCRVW

Molecule | % Efficiency (NPR-B [1]) [%] | EC50 Ratio versus CNP22 (NPR-B [1]) | Rescue Ratio versus CNP22 (NPR-B [1]) | Rescue range (NPR-B [1]) [nM] | potency compared with NC2B (NPR-B [1]) | reduction of ability to generate cGMP after incubation with purified NEP [2] | EC50 (NPR-B [3]) [nM] | EC50 (NPR-B [1]) [nM]
B1 | 115 | 1.97 | 2.0 ± 0.8 | 4.8 to 29 | improved potency compared to NC2B; also recorded: the most potent of all the proteins provided in FIG. 37A | comparable levels of cGMP | 28.8 | –
B2 | 98 | 11.4 | 13 ± 2.4 | 29 to 187 | improved potency compared to NC2B | – | 100 | 167
B3 | 80 | 53.2 | 69 ± 23 | 157 to 1023 | – | – | – | 782

Entries after “also recorded” stand apart in the source; their conditions may differ.
